# Data: PubChem BioAssay AID504832 (National Center for Advancing Translational Sciences (NCATS), 2011)
# Hit rate of the full screen: of about 310,000 compounds, about 18,000 (5.8%) were called active. The shares of active, inactive and inconclusive entries below differ from those in the screen. The call rests on the fitted dose curve; in most records, active means well fitted inhibition curve with a large enough effect; inconclusive means small, poorly fitted or top-dose-only effect, or another doubt; inactive means no such curve, though single readings can be large or run the other way. No potency is given beside an inconclusive call; the fits are too rough.
# Assay: Primary qHTS for delayed death inhibitors of the malarial parasite plastid, 48 hour incubation
# Conditions: P. falciparum luciferase growth in erythrocytes; series mostly up to 28.7 µM
# Summary of the method: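 Luciferase-expressing P. falciparum in infected erythrocytes (2% hematocrit, 0.1% parasitemia final) in RPMI 1640/0.5% Albumax were exposed to compound for 48 hours at 37 C, 5% CO2; growth read as luminescence.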
# Potency means the concentration at half of the fitted maximal effect; tags describe the fitted curve by direction and shape.
row,Structure (SMILES),Potency
1,C[C@@H](C(=O)NCCc1ccccc1)N1C(=O)N2CCc3c([nH]c4ccccc34)[C@@]2(C)C1=O,"inconclusive [inhibitor, single point]"
2,CCCCOc1cccc(/C=N/NC(=O)c2csc(C)c2C)c1,inactive
3,Cn1c(NCc2cccc(Br)c2)nc2ccccc21,inactive
4,O=C(Nc1cccc(S(=O)(=O)N2CCCC2)c1)c1ccc2c(=O)n3c(nc2c1)CCCCC3,"inconclusive [inhibitor, partial curve]"
5,Cc1ccc(Nc2ncc(C(=O)NCCCN3CCN(C)CC3)c3ccccc23)cc1Cl,"inconclusive [inhibitor, single point]"
6,O=C1C=C(c2cccc(CO)c2)C[C@@H](c2ccc(F)cc2)C1,active: 2.33 µM
7,CSC1=N/C(=C/c2cccnc2)C(=O)N1Cc1ccc(Cl)cc1,active: 6.57 µM
8,CCOC(=O)C1(CC2CCCCO2)CCN(S(=O)(=O)c2ccccc2)CC1 (centres undefined),"inconclusive [inhibitor, partial curve, poor fit]"
9,CC(Sc1ccccc1)C(=O)Nc1ccc(S(=O)(=O)N2CCOCC2)cc1 (centres undefined),"inconclusive [inhibitor, single point]"
10,CC1(C)NC(=O)N(CCCCOc2ccc3c(c2)CCC3)C1=O,"inconclusive [inhibitor, partial curve, poor fit]"
11,CCc1nc2oc3ccccc3c(=O)c2cc1C(=O)OC,inactive
12,CCOC(=O)c1c(C)cc(C)n2c1nc1ccccc12,"inconclusive [inhibitor, single point]"
13,O=C(CSc1nc(=O)n2ccccc2n1)NCCc1ccccc1,"inconclusive [inhibitor, partial curve, poor fit]"
14,Cc1nc(N2CCN(c3ccccn3)CC2)c2c(C)c(C(=O)N3CCN(c4ccc(F)cc4)CC3)sc2n1,active: 4.65 µM
15,COc1ccc(/C=N/OCC(=O)OCC(=O)N(C)c2ccccc2)cc1,inactive
16,COC(=O)c1cccc(S(=O)(=O)N(Cc2ccco2)Cc2cc3ccc(OC)cc3[nH]c2=O)c1,"inconclusive [inhibitor, single point]"
17,O=C(NCC1CCCN1S(=O)(=O)c1cccs1)c1ccc([N+](=O)[O-])cc1 (centres undefined),"inconclusive [inhibitor, partial curve, poor fit]"
18,Cc1ccc(OCC(O)CN2CC3(C)CC2CC(C)(C)C3)cc1 (centres undefined),"inconclusive [inhibitor, single point]"
19,O=C(Nc1ccncc1)C1(c2ccccc2)CCCC1,"inconclusive [inhibitor, full curve, poor fit]"
20,CN1CCN(C(CNC(=O)C(=O)Nc2ccc3c(c2)OCCO3)c2ccc(F)cc2)CC1 (centres undefined),"inconclusive [inhibitor, single point]"
21,COc1cccc(NC(=O)CN(C)C(=O)CCCc2nc3ccccc3s2)c1,inactive
22,CCOc1cccc2sc(N(CCCN(C)C)C(=O)c3ccc(S(=O)(=O)N4CCc5ccccc5C4)cc3)nc12,"inconclusive [inhibitor, partial curve, poor fit]"

row,Structure (SMILES),Potency
1,CCOC(=O)c1oc2c(O)c(O)ccc2c(=O)c1-c1nncn1-c1ccccc1,"inconclusive [inhibitor, single point]"
2,O=C(c1cc2cc(F)ccc2[nH]1)N1CCc2ccccc2C1,"inconclusive [inhibitor, single point]"
3,CCOC(=O)c1c(C)oc2c1c(C=NCCO)c(O)c1ccccc12,"inconclusive [inhibitor, single point]"
4,CC(=O)Nc1cccc(-c2cc(-c3c(Cl)cccc3Cl)no2)c1,"inconclusive [inhibitor, single point]"
5,Cc1ccc(S(=O)(=O)Cn2nnnc2C(c2ccccn2)N2CCN(c3ccccc3)CC2)cc1 (centres undefined),"inconclusive [inhibitor, partial curve]"
6,COc1cccc(-n2nnnc2SCC(=O)N2CCCc3ccccc32)c1,inactive
7,O=C(NS(=O)(=O)Nc1ccccn1)c1c[nH]c2ccccc12,inactive
8,CCN(CC(=O)Nc1ccccc1C(F)(F)F)CC(=O)NC1CC1,"inconclusive [inhibitor, single point]"
9,COc1ccc(S(=O)(=O)N2CCOCC2)cc1NC(=O)C1CCCN1C(=O)c1cccs1 (centres undefined),"inconclusive [inhibitor, single point]"
10,CO/N=C(\CCC(=O)O)c1cccs1,inactive
11,Cc1nn(Cc2ccccc2Cl)c(C)c1C(=O)NCCN1C(=O)S/C(=C\c2ccccc2)C1=O,"inconclusive [inhibitor, partial curve, poor fit]"
12,COc1cc(/C=C/C(=O)OC2CC3CCC2(C)C3(C)C)ccc1O (centres undefined),"inconclusive [inhibitor, single point]"
13,Cn1c(N)c(C(=O)COC(=O)C2(c3ccc(Cl)cc3)CCCC2)c(=O)n(C)c1=O,active: 3.7 µM
14,CCOc1ccc(NC(=O)Cn2cc(C(=O)C3CC3)c3ccccc32)cc1,inactive
15,Cc1ccc(/C=N/N(C)C2=NS(=O)(=O)c3ccccc32)o1,inactive
16,O=C(O)/C=C/C(=O)NNC(=O)c1ccccc1Br,inactive
17,Cc1cc(O)c2c3c(c(=O)oc2c1)CCC(C)C3 (centres undefined),"inconclusive [inhibitor, single point]"
18,COc1ccc2nc(SCC(=O)N(C)C3CCCCC3)c(C#N)cc2c1,"inconclusive [inhibitor, partial curve, poor fit]"
19,O=C(c1ccco1)N1CCN(Cc2cccc([N+](=O)[O-])c2)CC1,inactive
20,COC(=O)c1sc(N)c(C(=O)OC)c1COC(=O)C1CC(=O)N(Cc2ccco2)C1 (centres undefined),"inconclusive [inhibitor, single point]"
21,CC1(C)CC2CC(C)(CN2/C=C2/CCCCC2=O)C1 (centres undefined),"inconclusive [inhibitor, partial curve, poor fit]"
22,CCN(CC(=O)Nc1ccccc1OC)C(=O)c1ccccc1Sc1ccccc1C#N,"inconclusive [inhibitor, partial curve]"
